# The other results are listed elsewhere or left out.
# B1: PEB3 Cj0289c (Campylobacter jejuni), Q9PIK7 (protein)
# chain: MDVNLYGPGGPHTALKDIANKYSEKTGVKVNVNFGPQATWFEKAKKDADILFGASDQSALAIASDFGKDFNVSKIKPLYFREAIILTQKGNPLKIKGLKDLANKKVRIVVPEGAGKSNTSGTGVWEDMIGRTQDIKTIQNFRNNIVAFVPNSGSARKLFAQDQADAWITWIDWSKSNPDIGTAVAIEKDLVVYRTFNVIAKEGASKETQDFIAYLSSKEAKEIFKKYGWRE
# Columns and labels:
# Assay in all cases: glycan array binding signal (z-score within array); higher = stronger binding
# Details in all cases: glycan notation: IUPAC condensed, linker removed
# [1] = molecular target: Gal(b1-3)[Neu5Ac(a2-6)]GlcNAc(a1-4)Gal(b1-4)Glc
# Summary of the method: (§1)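 From the Consortium for Functional Glycomics database, 3228 arrays were curated, keeping only those whose protein sequence was available. Binding is given as a within-array Z-score averaged across arrays sharing a protein sequence and across linkers. Negative Z-scores can be read as non-binding.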
# [2] = molecular target: Gal(b1-3)[Neu5Ac(b2-6)]GlcNAc
# Summary of the method: as §1
# [3] = molecular target: Gal(b1-4)GalNAc(a1-3)[Fuc(a1-2)]Gal(b1-4)GlcNAc
# Summary of the method: as §1
# [4] = molecular target: Gal(b1-4)GalNAc(b1-3)[Fuc(a1-2)]Gal(b1-4)GlcNAc
# Summary of the method: as §1
# Gal(b1-4)Glc = molecular target: Gal(b1-4)Glc
# Summary of the method: as §1
# Gal(b1-4)Glc6S = molecular target: Gal(b1-4)Glc6S
# Summary of the method: as §1
# Gal(b1-4)GlcNAc = molecular target: Gal(b1-4)GlcNAc
# Summary of the method: as §1
# [5] = molecular target: Gal(b1-4)GlcNAc(b1-2)Man(a1-3)[Gal(b1-4)GlcNAc(b1-2)Man(a1-6)]Man(b1-4)GlcNAc(b1-4)GlcNAc
# Summary of the method: as §1
# [6] = molecular target: Gal(b1-4)GlcNAc(b1-3)Gal(b1-3)GlcNAc
# Summary of the method: as §1
# [7] = molecular target: Gal(b1-4)GlcNAc(b1-3)Gal(b1-4)Glc
# Summary of the method: as §1
# [8] = molecular target: Gal(b1-4)GlcNAc(b1-3)Gal(b1-4)GlcNAc
# Summary of the method: as §1
# [9] = molecular target: Gal(b1-4)GlcNAc(b1-3)Gal(b1-4)GlcNAc(b1-3)Gal(b1-4)GlcNAc
# Summary of the method: as §1
# [10] = molecular target: Gal(b1-4)GlcNAc(b1-3)Gal(b1-4)[Fuc(a1-3)]GlcNAc(b1-3)Gal(b1-4)[Fuc(a1-3)]GlcNAc
# Summary of the method: as §1
# [11] = molecular target: Gal(b1-4)GlcNAc(b1-3)GalNAc
# Summary of the method: as §1
# [12] = molecular target: Gal(b1-4)GlcNAc(b1-3)[Gal(b1-4)GlcNAc(b1-6)]GalNAc
# Summary of the method: as §1
# [13] = molecular target: Gal(b1-4)GlcNAc(b1-6)GalNAc
# Summary of the method: as §1
# [14] = molecular target: Gal(b1-4)GlcNAc(b1-6)[Gal(b1-3)]GalNAc
# Summary of the method: as §1
# [15] = molecular target: Gal(b1-4)GlcNAc(b1-6)[Gal(b1-3)]GlcNAc
# Summary of the method: as §1
# Gal3S(b1-3)GalNAc = molecular target: Gal3S(b1-3)GalNAc
# Summary of the method: as §1
# Gal3S(b1-3)GlcNAc = molecular target: Gal3S(b1-3)GlcNAc
# Summary of the method: as §1
# [16] = molecular target: Gal3S(b1-3)[Fuc(a1-4)]GlcNAc
# Summary of the method: as §1
# Gal3S(b1-4)Glc = molecular target: Gal3S(b1-4)Glc
# Summary of the method: as §1
# Gal3S(b1-4)Glc6S = molecular target: Gal3S(b1-4)Glc6S
# Summary of the method: as §1
# Gal3S(b1-4)GlcNAc = molecular target: Gal3S(b1-4)GlcNAc
# Summary of the method: as §1
# Gal3S(b1-4)GlcNAc6S = molecular target: Gal3S(b1-4)GlcNAc6S
# Summary of the method: as §1
# Gal3S6S(b1-4)GlcNAc = molecular target: Gal3S6S(b1-4)GlcNAc
# Summary of the method: as §1
# Gal3S6S(b1-4)GlcNAc6S = molecular target: Gal3S6S(b1-4)GlcNAc6S
# Summary of the method: as §1
# Gal4S(b1-4)GlcNAc = molecular target: Gal4S(b1-4)GlcNAc
# Summary of the method: as §1
# Gal4S6S(b1-4)GlcNAc = molecular target: Gal4S6S(b1-4)GlcNAc
# Summary of the method: as §1
# Gal6S(b1-4)Glc = molecular target: Gal6S(b1-4)Glc
# Summary of the method: as §1
# Gal6S(b1-4)Glc6S = molecular target: Gal6S(b1-4)Glc6S
# Summary of the method: as §1
# Gal6S(b1-4)GlcNAc = molecular target: Gal6S(b1-4)GlcNAc
# Summary of the method: as §1
# GalNAc(a1-3)Gal = molecular target: GalNAc(a1-3)Gal
# Summary of the method: as §1
# GalNAc(a1-3)GalNAc = molecular target: GalNAc(a1-3)GalNAc
# Summary of the method: as §1
# [17] = molecular target: GalNAc(b1-3)Gal(a1-4)Gal(b1-4)GlcNAc
# Summary of the method: as §1
# GalNAc(b1-4)GlcNAc = molecular target: GalNAc(b1-4)GlcNAc
# Summary of the method: as §1
# Glc(a1-4)Glc = molecular target: Glc(a1-4)Glc
# Summary of the method: as §1
# Glc(a1-6)Glc(a1-6)Glc = molecular target: Glc(a1-6)Glc(a1-6)Glc
# Summary of the method: as §1
# Glc(b1-4)Glc = molecular target: Glc(b1-4)Glc
# Summary of the method: as §1
# Glc(b1-6)Glc = molecular target: Glc(b1-6)Glc
# Summary of the method: as §1
# GlcA(b1-3)Gal = molecular target: GlcA(b1-3)Gal
# Summary of the method: as §1
# GlcA(b1-6)Gal = molecular target: GlcA(b1-6)Gal
# Summary of the method: as §1
# [18] = molecular target: GlcNAc(a1-3)Gal(b1-4)GlcNAc
# Summary of the method: as §1
# [19] = molecular target: GlcNAc(a1-6)Gal(b1-4)GlcNAc
# Summary of the method: as §1
# [20] = molecular target: GlcNAc(b1-2)Gal(b1-3)GlcNAc
# Summary of the method: as §1
binder,measurement,setting,value
B1,glycan array binding signal (z-score),[1],-0.338
same,glycan array binding signal (z-score),[2],-0.261
same,glycan array binding signal (z-score),[3],-0.402
same,glycan array binding signal (z-score),[4],-0.381
same,glycan array binding signal (z-score),Gal(b1-4)Glc,-0.038
same,glycan array binding signal (z-score),Gal(b1-4)Glc6S,0.339
same,glycan array binding signal (z-score),Gal(b1-4)GlcNAc,-0.277
same,glycan array binding signal (z-score),[5],-0.353
same,glycan array binding signal (z-score),[6],-0.218
same,glycan array binding signal (z-score),[7],-0.373
same,glycan array binding signal (z-score),[8],-0.388
same,glycan array binding signal (z-score),[9],-0.417
same,glycan array binding signal (z-score),[10],-0.353
same,glycan array binding signal (z-score),[11],-0.375
same,glycan array binding signal (z-score),[12],-0.307
same,glycan array binding signal (z-score),[13],-0.324
same,glycan array binding signal (z-score),[14],-0.451
same,glycan array binding signal (z-score),[15],-0.316
same,glycan array binding signal (z-score),Gal3S(b1-3)GalNAc,-0.22
same,glycan array binding signal (z-score),Gal3S(b1-3)GlcNAc,0.208
same,glycan array binding signal (z-score),[16],-0.128
same,glycan array binding signal (z-score),Gal3S(b1-4)Glc,0.858
same,glycan array binding signal (z-score),Gal3S(b1-4)Glc6S,1.38
same,glycan array binding signal (z-score),Gal3S(b1-4)GlcNAc,0.177
same,glycan array binding signal (z-score),Gal3S(b1-4)GlcNAc6S,0.607
same,glycan array binding signal (z-score),Gal3S6S(b1-4)GlcNAc,0.902
same,glycan array binding signal (z-score),Gal3S6S(b1-4)GlcNAc6S,2.8
same,glycan array binding signal (z-score),Gal4S(b1-4)GlcNAc,0.039
same,glycan array binding signal (z-score),Gal4S6S(b1-4)GlcNAc,0.469
same,glycan array binding signal (z-score),Gal6S(b1-4)Glc,0.401
same,glycan array binding signal (z-score),Gal6S(b1-4)Glc6S,1.36
same,glycan array binding signal (z-score),Gal6S(b1-4)GlcNAc,0.119
same,glycan array binding signal (z-score),GalNAc(a1-3)Gal,-0.138
same,glycan array binding signal (z-score),GalNAc(a1-3)GalNAc,-0.221
same,glycan array binding signal (z-score),[17],-0.356
same,glycan array binding signal (z-score),GalNAc(b1-4)GlcNAc,-0.259
same,glycan array binding signal (z-score),Glc(a1-4)Glc,-0.142
same,glycan array binding signal (z-score),Glc(a1-6)Glc(a1-6)Glc,-0.314
same,glycan array binding signal (z-score),Glc(b1-4)Glc,0.314
same,glycan array binding signal (z-score),Glc(b1-6)Glc,0.09
same,glycan array binding signal (z-score),GlcA(b1-3)Gal,0.158
same,glycan array binding signal (z-score),GlcA(b1-6)Gal,0.216
same,glycan array binding signal (z-score),[18],-0.304
same,glycan array binding signal (z-score),[19],-0.094
same,glycan array binding signal (z-score),[20],-0.446
